Results as given in patent publication US20220257974A1, “PHOTOBIOMODULATION METHOD AND SYSTEM FOR INDUCING ACTIVITY OF BRAINDERIVED NERVE GROWTH FACTOR IN HIPPOCAMPAL TISSUE” (INDUSTRY ACADEMIC COOPERATION FOUNDATION KEIMYUNG UNIVERSITY, priority 2019, published 2022).

System: glutathione peroxidase (GPx)
Assay type: cell-based, mice
Details: organotypic hippocampal slices, after H2O2-induced oxidative stress
Excerpt: The used […] BDNF, forward [NT], and reverse [NT]; glutathione peroxidase (GPx), forward [NT], and reverse [NT]; superoxide dismutasee 1 (SOD1), forward [NT], and reverse [NT]; glutathione reductase (GR), forward [NT], and reverse [NT]; and h-GAPDH transfer [NT], reverse [NT]. All experiments were implemented three times.

OO [H2O2]
GPx expression (mRNA): expression was reduced
